This passage reports amyloid nucleation score results from the supplement of paper PMC12067230.

The data scatter; read single values as rough.
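Note: [psi-pin-] Saccharomyces cerevisiae expressing SupN fusions, induced by 100 µM Cu2SO4, selected 7 d at 30 °C without adenine and uracil, scored by deep sequencing of output versus input.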

The nature of one data set: amyloid nucleation score relative to library mode (yeast Sup35 reporter selection) (log enrichment difference); higher = more amyloid nucleation; sequences are the first 22 residues of the Bri2 peptide extended by up to 12 random residues. Particulars: random library (experiment): 1;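 active = nucleation score significantly above 0 at FDR 0.05; inactive = not significantly above 0 or absent from output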.
As for EASNCFAIRHFENKFAVETLICGSACLAIMLVPR, the amyloid nucleation score result is “inactive”. As for EASNCFAIRHFENKFAVETLICGSAGRPEVCRTE, the amyloid nucleation score entry was “inactive”. EASNCFAIRHFENKFAVETLICGSAMDVVAGKTR: the amyloid nucleation score entry is “inactive”. In the case of EASNCFAIRHFENKFAVETLICGSAWIGRWSIGW, the amyloid nucleation score result is “inactive”.

The sequence EASNCFAIRHFENKFAVETLICGSCPMILPDPWL yielded an amyloid nucleation score of 8.57. With EASNCFAIRHFENKFAVETLICGSDDLRQRAGLL, the amyloid nucleation score result was “inactive”. For the sequence EASNCFAIRHFENKFAVETLICGSEPVSQGTAAC, the amyloid nucleation score entry was “inactive”.

For the sequence EASNCFAIRHFENKFAVETLICGSESSVLCFWWV, the amyloid nucleation score result is “inactive”.

EASNCFAIRHFENKFAVETLICGSFR: the amyloid nucleation score entry is “inactive”. Take EASNCFAIRHFENKFAVETLICGSGRWTRNYYRG: the amyloid nucleation score came out at 1.39. EASNCFAIRHFENKFAVETLICGSGSMSFRKMCV: the amyloid nucleation score entry was “inactive”. Same read-out and setting: with EASNCFAIRHFENKFAVETLICGSGTPDVAASSR the entry was “inactive”. On to EASNCFAIRHFENKFAVETLICGSGYRMLGLRRM, for which the amyloid nucleation score entry is “inactive”.

As for EASNCFAIRHFENKFAVETLICGSKL, the amyloid nucleation score entry is “inactive”. As to EASNCFAIRHFENKFAVETLICGSKNAGMALRKG, the amyloid nucleation score result was “inactive”.

For EASNCFAIRHFENKFAVETLICGSL, the amyloid nucleation score is -0.12.

For the sequence EASNCFAIRHFENKFAVETLICGSLCNDCWRHLM, the amyloid nucleation score entry is “inactive”.

Consider EASNCFAIRHFENKFAVETLICGSLEVTLSIWAG, for which the amyloid nucleation score amounted to 0.872.

As to EASNCFAIRHFENKFAVETLICGSLLR, the amyloid nucleation score entry is “inactive”. With EASNCFAIRHFENKFAVETLICGSLNGIDGGRRW, the amyloid nucleation score was 3.26. Still for that read-out and setting: with EASNCFAIRHFENKFAVETLICGSLRLGWSGCDA the figure was 7.95; with EASNCFAIRHFENKFAVETLICGSLVLMALCV, 4.23. The same measure, in the same setting: with EASNCFAIRHFENKFAVETLICGSMSGTQGWWGL the figure was 5.71; with EASNCFAIRHFENKFAVETLICGSNMRGSVQFEC, -0.211. On to EASNCFAIRHFENKFAVETLICGSNVRERHPVGR, for which the amyloid nucleation score entry was “inactive”.

Turning to EASNCFAIRHFENKFAVETLICGSPNFQSYRIRH, the amyloid nucleation score entry is “inactive”. Regarding EASNCFAIRHFENKFAVETLICGSPWEYEPEPR, the amyloid nucleation score result was “inactive”. On to EASNCFAIRHFENKFAVETLICGSQSCFRRLVSV, for which the amyloid nucleation score result was “inactive”.

For EASNCFAIRHFENKFAVETLICGSQYP, the amyloid nucleation score entry was “inactive”.

In the case of EASNCFAIRHFENKFAVETLICGSRDK, the amyloid nucleation score entry was “inactive”. EASNCFAIRHFENKFAVETLICGSRFDR gave an amyloid nucleation score of -0.648. For the sequence EASNCFAIRHFENKFAVETLICGSRGRQHVSSVR, the amyloid nucleation score result was “inactive”. Still for that read-out and setting: with EASNCFAIRHFENKFAVETLICGSRSGRRARTRG the entry was “inactive”; with EASNCFAIRHFENKFAVETLICGSRSRQQVKGEL, -0.203. Take EASNCFAIRHFENKFAVETLICGSRWR: the amyloid nucleation score entry was “inactive”.

Turning to EASNCFAIRHFENKFAVETLICGSSCSCR, the amyloid nucleation score entry is “inactive”. Take EASNCFAIRHFENKFAVETLICGSSDGSVRWEHS: the amyloid nucleation score result is “inactive”. With EASNCFAIRHFENKFAVETLICGSSDRYVSIRWM, the amyloid nucleation score entry is “inactive”. Regarding EASNCFAIRHFENKFAVETLICGSSGACSRLRHA, the amyloid nucleation score came out at 3.56.

The sequence EASNCFAIRHFENKFAVETLICGSSGRRLRYGSR had an amyloid nucleation score of 2.2. With EASNCFAIRHFENKFAVETLICGSSLGGNRMSEW, the amyloid nucleation score result is “inactive”. In the case of EASNCFAIRHFENKFAVETLICGSSMGMFNSVKD, the amyloid nucleation score was found to be 3.92.

EASNCFAIRHFENKFAVETLICGSSMNGAALAHT: the amyloid nucleation score entry is “inactive”. For EASNCFAIRHFENKFAVETLICGSSSVY, the amyloid nucleation score was -0.25. The same measure, in the same setting: with EASNCFAIRHFENKFAVETLICGSTLCLS the figure was 5.63; with EASNCFAIRHFENKFAVETLICGSTRSAPYNNTR, “inactive”.

The same data set, now with this note: random library (experiment): 2.
Turning to EASNCFAIRHFENKFAVETLICGRWQYVLVLID, the amyloid nucleation score result was “inactive”. As to EASNCFAIRHFENKFAVETLICGSCDDVVHSPTR, the amyloid nucleation score result is “inactive”. Regarding EASNCFAIRHFENKFAVETLICGSEWVQSGRVSR, the amyloid nucleation score result is “inactive”. Same read-out and setting: with EASNCFAIRHFENKFAVETLICGSGHCDTLWGRT the figure was 3.03. For the sequence EASNCFAIRHFENKFAVETLICGSIYDLIASWGK, the amyloid nucleation score stood at 7.51. For EASNCFAIRHFENKFAVETLICGSKYRSDWCWGY, the amyloid nucleation score is 3.01. Regarding EASNCFAIRHFENKFAVETLICGSLS, the amyloid nucleation score stood at 1.48. As for EASNCFAIRHFENKFAVETLICGSM, the amyloid nucleation score entry is “inactive”. Same read-out and setting: with EASNCFAIRHFENKFAVETLICGSMRYLTDTRRL the figure was 3.2; with EASNCFAIRHFENKFAVETLICGSNTRAS, 4.07; with EASNCFAIRHFENKFAVETLICGSNVNSRITEVV, “inactive”. Take EASNCFAIRHFENKFAVETLICGSPCERMTVFVK: the amyloid nucleation score amounted to 0.274. The same measure, in the same setting: with EASNCFAIRHFENKFAVETLICGSPERYNYVGSG the entry was “inactive”; with EASNCFAIRHFENKFAVETLICGSPYVRYLAPGH, “inactive”; with EASNCFAIRHFENKFAVETLICGSQFLIGRFIWQ, -0.262. The sequence EASNCFAIRHFENKFAVETLICGSQLSKSNCWNS returned an amyloid nucleation score of 3. In the case of EASNCFAIRHFENKFAVETLICGSQTCQLNGLDR, the amyloid nucleation score is -0.0198. As for EASNCFAIRHFENKFAVETLICGSSFIYSYGYRG, the amyloid nucleation score stood at 3.4. EASNCFAIRHFENKFAVETLICGSSIGNMRFFTC registered an amyloid nucleation score of 5.72. EASNCFAIRHFENKFAVETLICGSSNWGSSSWYG: the amyloid nucleation score worked out at 4.44. For the sequence EASNCFAIRHFENKFAVETLICGSSQLPAPLLGR, the amyloid nucleation score result is “inactive”. On to EASNCFAIRHFENKFAVETLICGST, for which the amyloid nucleation score is -0.104. On to EASNCFAIRHFENKFAVETLICGSTRGVLLRIKG, for which the amyloid nucleation score entry was “inactive”. Consider EASNCFAIRHFENKFAVETLICGSVEFSVYFREK, for which the amyloid nucleation score worked out at 4.26. In turn, EASNCFAIRHFENKFAVETLICGSVFRVYCPHSW registered an amyloid nucleation score of 7.34.

The data set is the same for the next values; noted with them: random library (experiment): 3.
With EASNCFAIRHFENKFAVETLICGRWVYKPCLVEY, the amyloid nucleation score result was “inactive”. On to EASNCFAIRHFENKFAVETLICGRYSAGKLRYWA, for which the amyloid nucleation score entry is “inactive”. EASNCFAIRHFENKFAVETLICGSAAKPGVDVLD: the amyloid nucleation score entry is “inactive”. EASNCFAIRHFENKFAVETLICGSARYHDIAAGA: the amyloid nucleation score result is “inactive”.

Consider EASNCFAIRHFENKFAVETLICGSCLLTREWARW, for which the amyloid nucleation score came to 7.4.

EASNCFAIRHFENKFAVETLICGSDKYGRRLCGW registered an amyloid nucleation score of -0.444. As to EASNCFAIRHFENKFAVETLICGSEAGR, the amyloid nucleation score result is “inactive”. As for EASNCFAIRHFENKFAVETLICGSEEASAQGSVY, the amyloid nucleation score entry was “inactive”. Same read-out and setting: with EASNCFAIRHFENKFAVETLICGSEIRRNSRVIG the entry was “inactive”. As to EASNCFAIRHFENKFAVETLICGSGAERTGMKAV, the amyloid nucleation score was -0.0526. Consider EASNCFAIRHFENKFAVETLICGSGDEKKVPTQG, for which the amyloid nucleation score was -0.281. On the same count and under the same terms, with EASNCFAIRHFENKFAVETLICGSGEYLWSILSR the figure was 0.104; with EASNCFAIRHFENKFAVETLICGSHSSGRLGQPR, 3.44; with EASNCFAIRHFENKFAVETLICGSLANETLECVG, “inactive”. With EASNCFAIRHFENKFAVETLICGSLNIERVMLRA, the amyloid nucleation score worked out at 4.01. The sequence EASNCFAIRHFENKFAVETLICGSMAMTSQVGLR returned an amyloid nucleation score of 1. On the same count and under the same terms, with EASNCFAIRHFENKFAVETLICGSMLSRGWEGTL the figure was 3.26; with EASNCFAIRHFENKFAVETLICGSNAGSAASKCR, 1.12. Sequence EASNCFAIRHFENKFAVETLICGSNMNRTMRGSR displayed an amyloid nucleation score of 2.31.

Regarding EASNCFAIRHFENKFAVETLICGSPSVQTTEFER, the amyloid nucleation score entry is “inactive”. As to EASNCFAIRHFENKFAVETLICGSPT, the amyloid nucleation score result is “inactive”. Turning to EASNCFAIRHFENKFAVETLICGSRIEGSLRHGS, the amyloid nucleation score entry is “inactive”.

EASNCFAIRHFENKFAVETLICGSRL returned an amyloid nucleation score of 2.78. Consider EASNCFAIRHFENKFAVETLICGSRQEGVWGDAR, for which the amyloid nucleation score entry was “inactive”. The same measure, in the same setting: with EASNCFAIRHFENKFAVETLICGSRRDKRKGSRC the entry was “inactive”; with EASNCFAIRHFENKFAVETLICGSRRDVTFVYTP, “inactive”. On the same count and under the same terms, with EASNCFAIRHFENKFAVETLICGSRRERWLGGWR the figure was 5.53; with EASNCFAIRHFENKFAVETLICGSRYQSKVVKAK, “inactive”; with EASNCFAIRHFENKFAVETLICGSSVRSLIRWDW, “inactive”.

As to EASNCFAIRHFENKFAVETLICGSTKASAWSGVS, the amyloid nucleation score entry was “inactive”. Sequence EASNCFAIRHFENKFAVETLICGSTRLVRYLPGV returned an amyloid nucleation score of -0.396. EASNCFAIRHFENKFAVETLICGSVF gave an amyloid nucleation score of 3.78.
